Source: PubChem BioAssay AID485364 (National Center for Advancing Translational Sciences (NCATS), 2010)
The campaign covered roughly 360,000 compounds. About 11,000 (3.1%) were called active. This list was built around the results that the source calls inconclusive (neither active nor inactive); the mix of calls is not that of the screen. The call rests on the fitted dose curve; in most records, active means well fitted inhibition curve with a large enough effect; inconclusive means small, poorly fitted or top-dose-only effect; inactive means no such curve, though single readings can be large or run the other way. Potencies of inconclusive entries are left out as doubtful fits.

What follows are compounds tested against Schistosoma mansoni thioredoxin glutathione reductase (TGR) (UniProt Q962Y6) (assay: qHTS Assay for the Inhibitors of Schistosoma Mansoni Peroxiredoxins). Details: purified TGR, DTNB reduction, TNB absorbance 405 nm; activity change, negative = inhibition: at 114 µM (top of the series) unless noted.
Procedure, shortened: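 First, TGR (20 nM dispensed) and NADPH were mixed with compound. Second, a 15 min room-temperature incubation followed. Third, further NADPH and then DTNB were added to start the reaction. Finally, TNB absorbance was monitored kinetically.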
Further: nearly all actives have a fitted effect of over 60% in size.
On the % scale 0 is the no-effect control and ±100 the full control effect; potency means the concentration at half of the fitted maximal effect; tags describe the fitted curve by direction and shape.

SMILES | activity change, negative = inhibition | Potency
Cc1cnc(NC(=O)CN(C)S(=O)(=O)c2ccc(Cl)cc2)s1 | inactive: 7.15% | 
CCC(C)C(=O)Nc1nc2ccc(OC)cc2s1 (configuration not stated) | inactive: 1.06% | 
O=C(C1=C[C@@H]2[C@H]3C(=O)N(c4ccccc4)C(=O)[C@H]3[C@@H](C(=O)c3ccc(Cl)cc3)N2C=C1)c1ccccc1 |  | active: 14.1 µM
Cc1ccc(-c2cn3c(=O)cc(C)[nH]c3n2)cc1 | inactive: 0% | 
Cc1c(NC(=O)CSCc2ccco2)c(=O)n(-c2ccccc2)n1C |  | inconclusive [inhibitor, partial curve]
Cc1cccc(NC(=S)NC(=O)/C=C/c2ccco2)n1 |  | inconclusive [inhibitor, full curve]
COc1ccc(C(=O)NCC(=O)N/N=C/C(C)=C/c2ccco2)cc1OC |  | inconclusive [inhibitor, partial curve]
COc1ccc(-c2ccc(C)cc2)cc1[C@H]1[C@H]2C=CC[C@@H](C)[C@@H]2C(=O)N1Cc1ccccc1 |  | inconclusive [inhibitor, single point]
COc1ccc2nc(NC(=O)c3ccc(NC(=O)C4CCCO4)cc3)sc2c1 (configuration not stated) | inactive: 3.14% | 
O=S(=O)(c1ccc(NC(=S)Nc2ccc(OC(F)F)cc2)cc1)N1CCOCC1 |  | active: 44.7 µM
COc1cccc(-c2cc(C(=O)NC3CCCC3)no2)c1 | inactive: 0.635% | 
CCc1nnc(NC(=O)c2cc(C)oc2C)s1 |  | inconclusive [inhibitor, partial curve, poor fit]
O=C1C2C(c3ccccc3)CC=CC2[C@H](c2cccc([N+](=O)[O-])c2)N1Cc1ccccc1 (some centres not stated) | inactive: -13.3% | 
CCc1ccc(O)c(N=Cc2ccccc2O)c1 |  | inconclusive [inhibitor, partial curve]
Cc1cc(NC(=O)C(C)Sc2nnc(NCc3ccco3)s2)no1 (configuration not stated) |  | inconclusive [inhibitor, partial curve]
COc1ccc(CN=Cc2[nH]c3ccc(Br)c(Cl)c3c2O)cc1 |  | inconclusive [inhibitor, partial curve]
COc1ccc(CCNC2CC(=O)N(CCc3ccc(OC)c(OC)c3)C2=O)cc1OC (configuration not stated) |  | inconclusive [inhibitor, partial curve]
O=C(NCCCN1CCN(c2ccccc2F)CC1)c1ccc2nc(CCc3ccccc3)oc2c1 |  | inconclusive [inhibitor, single point]
N#C/C(=C\c1ccc(N2CCOCC2)o1)c1nc2ccccc2[nH]1 |  | inconclusive [inhibitor, full curve]
CCOc1ccc(C(=O)NCC(=O)Nc2ncccc2C)cc1OCC | inactive: -4.26% | 
CCCn1cccc(C(=O)Nc2ccc(OC)cc2)c1=O | inactive: -30.6% | 
CCN1CCN(C2=CC3=CC(=C(C#N)C#N)CCC3CC2)CC1 (configuration not stated) |  | inconclusive [inhibitor, partial curve]
Cc1cccc(N(Cc2cc(=O)[nH]c3ccccc23)C(=O)CCl)c1 |  | inconclusive [inhibitor, partial curve, poor fit]
CCc1ccc(NC(=O)CSc2nc(-c3ccc(C)cc3)nc3c2Cc2c(CO)cnc(C)c2O3)cc1 |  | inconclusive [inhibitor, partial curve]

SMILES | activity change, negative = inhibition | Potency
Nc1c(C(=O)N/N=C/c2ccc(F)cc2)oc2nc(-c3ccccc3)cc(-c3ccco3)c12 |  | inconclusive [inhibitor, partial curve]
O=S(=O)(NC1CC(NS(=O)(=O)OCC(Cl)(Cl)Cl)C2CCCCC12)OCC(Cl)(Cl)Cl (configuration not stated) |  | active: 79.4 µM
Cc1ccc(CN2CCC(Oc3cccc(C(=O)N(C)CCN(C)C)c3)CC2)cc1C |  | inconclusive [inhibitor, partial curve]
Cc1ccccc1-c1nc(SCC(=O)N(C)c2ccccc2)c2c(=O)n(C)c(=O)n(C)c2n1 |  | inconclusive [inhibitor, single point]
Cc1cc(NS(=O)(=O)c2ccc(NC(=S)NC(=O)c3ccc(C(C)(C)C)cc3)cc2)no1 |  | inconclusive [inhibitor, partial curve]
O=C(O)Cn1cc(/C=C2\C(=O)NC(=O)N(c3ccc(Br)cc3)C2=O)c2ccccc21 |  | inconclusive [inhibitor, full curve]
COc1ccc(CCNc2oc(COc3ccccc3F)nc2C#N)cc1OC |  | inconclusive [inhibitor, partial curve]
N#Cc1nc(COc2cccc(Cl)c2)oc1NCc1ccncc1 |  | inconclusive [inhibitor, partial curve]
O=C(CN1CCN(C(=O)c2ccco2)CC1)Nc1ccc(Cl)c(S(=O)(=O)N2CCOCC2)c1 |  | inconclusive [inhibitor, partial curve]
COc1cccc(Nc2nc3ccc(C(=O)c4ccccc4)cc3n3c(C)nnc23)c1 | inactive: 3.77% | 
Cc1cc(CN2CCCC(CNC(=O)c3ccc(F)cc3)C2)cc(C)c1O (configuration not stated) |  | active: 35.5 µM
CC(=O)c1cccc(NC(=S)NCCc2ccc(F)cc2)c1 |  | inconclusive [inhibitor, partial curve]
O=C(CSc1nnc2scc(-c3ccccc3)n12)Nc1nsc(-c2ccccc2)n1 | inactive: -4.94% | 
Nc1nncn1C(=O)c1c(Cl)cccc1Cl |  | inconclusive [inhibitor, single point]
CN(C)CC1CCCCC1=O (configuration not stated) |  | active: 11.2 µM
CCCCN(CC(=O)Nc1cccc(S(=O)(=O)N2CCCC2)c1)Cc1nc2ccccc2c(=O)[nH]1 |  | active: 22.4 µM
COc1ccccc1CNC(=O)CC1C(=O)NCCN1C1Cc2ccccc2C1 (configuration not stated) |  | inconclusive [inhibitor, single point]
COc1ccc(S(=O)(=O)N2N=C(c3cccc(NS(C)(=O)=O)c3)CC2c2ccco2)cc1 (configuration not stated) |  | active: 22.4 µM
O=C(O)C1=C[C@@H](c2ccc3c(c2)OCO3)C[C@@H](OCCCCO)O1 |  | active: 44.7 µM
O=C(/C=C/c1ccco1)Nc1cccnc1Cl |  | active: 5.62 µM
COc1ccc(C(=O)/C=C/c2ccc(OC(=O)c3cc(OC)c(OC)c(OC)c3)cc2)cc1 | inactive: 9.28% | 
C/C(=N\S(=O)(=O)c1ccc(C)cc1)NC(=S)Nc1ccc(C)cc1 |  | inconclusive [inhibitor, full curve, poor fit]
COc1ccc(NCc2ccc([N+](=O)[O-])s2)c(OC)c1 |  | inconclusive [inhibitor, partial curve, poor fit]
O=C(Nc1ccncc1)c1cccn(Cc2ccccc2)c1=O |  | inconclusive [inhibitor, single point]

SMILES | activity change, negative = inhibition | Potency
COc1ccc(CC(=O)NCc2cccs2)cc1OC | inactive: 1.45% | 
O=C1[C@H]2[C@@H](C(=O)N1c1cc(Cl)cc(Cl)c1)[C@]1(C(=O)Nc3ccccc31)N1CCC[C@@H]21 |  | inconclusive [inhibitor, partial curve]
O=C1CCN(Cc2ccccc2)S(=O)(=O)c2ccc(F)cc21 |  | inconclusive [inhibitor, full curve]
CCCNC(=O)c1cnc2c(-c3ccc(OCC)c(OCC)c3)c(C)nn2c1-c1ccccc1 | inactive: -5.78% | 
C=C1CN(Cc2ccccc2)S(=O)(=O)c2ccccc21 |  | active: 17.8 µM
CCCNC(=O)c1ccccc1NS(=O)(=O)c1ccc2c(c1)OCCO2 | inactive: 1.87% | 
COC(=O)c1ccc(C(=O)N=c2sccn2C)cc1 | inactive: -4.78% | 
CC1=C(C#N)C(/C=N/OCc2ccc(F)cc2Cl)CC(=O)N1 (configuration not stated) | inactive: 6.37% | 
Cc1nc2ccccc2c(=O)n1/N=C/c1ccccc1Cl | inactive: 4.23% | 
COC(=O)c1ccc(C(C2C(=O)CC(C)(C)CC2=O)C2C(=O)CC(C)(C)CC2=O)cc1 |  | inconclusive [inhibitor, partial curve]
C=CCNc1nc2c3ccccc3n(C(C)=O)c2s1 | inactive: -13.2% | 
O=C(N/C(=C\c1ccco1)C(=O)N1CCCC1)c1cccs1 |  | inconclusive [inhibitor, partial curve]
COc1ccc(S(=O)(=O)N2CCOCC2)cc1NC(=O)CSc1nnc2c(n1)[nH]c1ccccc12 |  | inconclusive [inhibitor, full curve, poor fit]
CC(=O)c1ccc(NC(=O)Cn2c(=O)n(Cc3ccco3)c(=O)c3sc4ccccc4c32)cc1 |  | inconclusive [inhibitor, single point]
CCC1Sc2ccc(S(=O)(=O)CCC(=O)N3CCc4ccccc43)cc2NC1=O (configuration not stated) |  | inconclusive [inhibitor, partial curve]
C=Cn1c(P(=S)(N2CCOCC2)N2CCOCC2)cc2c1CCCC2 | inactive: 0.58% | 
CCCCn1c(SCC(=O)N2c3ccccc3Sc3ccccc32)nc2c1c(=O)n(C)c(=O)n2C |  | inconclusive [inhibitor, full curve, poor fit]
COCCNC(=S)N/N=C(\C)c1ccc(O)cc1 | inactive: -25.2% | 
Cc1ccc(Nc2nc3ccccc3n3nnnc23)cc1 | inactive: 1.29% | 
Cc1ccc(S(=O)(=O)Cn2nnnc2C(C)N2CCN(C(=O)c3ccco3)CC2)cc1 (configuration not stated) |  | active: 44.7 µM
O=C1CN(C(=O)CNCc2ccccc2Cl)c2ccccc2N1 |  | inconclusive [inhibitor, partial curve]
O=C(Cc1cccc2ccccc12)NC(=S)Nc1cccc(C(=O)O)c1 |  | inconclusive [inhibitor, partial curve]
CCn1c(-c2ccccc2)c(C(=O)CCl)c2ccccc21 |  | active: 17.8 µM
Cn1nc(C(=O)NC2CCCCC2)c2c1-c1ccccc1SC2 | inactive: -16.5% | 
